This is one part of the list. Shown are side measurements of this screen, not its main read-out; they come without a call. Most of these compounds were active or inconclusive in the main read-out, so they are no random draw.
Experiment: hypoxia reporter signal reduction in M. tuberculosis – fluorescence, absorbance growth readout, primary screen (AID 1159583)
Settings: M. tuberculosis hypoxia-regulated fluorescent reporter, measured here: M. tuberculosis growth (absorbance), stronger effect = higher value, concentration not given here
In the case of O=C(OCC#CCSc1nnc(-c2ccc(Br)cc2)o1)c1ccco1, the growth inhibition is reported as 20.7%. Work on Cc1ccc(/C=C/C(=O)N2CCN(Cc3ccccc3)CC2)o1 yielded a growth inhibition of 38.1%. For O=C(Cn1c(=O)cnc2ccccc21)Nc1cccc(S(=O)(=O)N2CCOCC2)c1, the growth inhibition was 68.2%. Work on CC1=NN(c2ccccc2)C(=O)/C1=C/C=C/C=C/N(C)C yielded a growth inhibition of -1.45%. Compound COc1ccc(NC(=O)CON=CC(=O)Nc2ccc(C)cc2)c(OC)c1 has a growth inhibition of 51.8%. In the case of Cc1cnc(C(=O)NC(C)CCc2ccccc2)cn1 (stereo unspecified), the growth inhibition is reported as 24.1%. For Cc1cc(C)c2sc(N(CCCN(C)C)C(=O)c3ccc(S(=O)(=O)N(C)C4CCCCC4)cc3)nc2c1, the growth inhibition was 21.6%. In the case of CCN(CC)CCCNc1nc2cc(OC)c(OC)cc2c2nc(-c3cccnc3)nn12, the growth inhibition is reported as 13.4%. CCCn1nnc(NC(=S)NC(=O)c2ccccc2OC)n1 showed a growth inhibition of 75.3%. In the case of CC(=O)c1ccc2c(c1)c(C#N)c1ccccc1[n+]2[O-], the growth inhibition is reported as 16.6%. With O=S(=O)(O)c1cccc(N=Nc2c(O)ccc3ccccc23)c1 the growth inhibition was 7.34%. Work on Cn1cc(C=NO)nc2c(=O)n(-c3ccccc3)c(=O)nc1-2 yielded a growth inhibition of 7.66%. COc1cccc(-c2c(-c3cc(OC)cc(OC)c3)n(C)c3ccc(-c4cnc(N5CCOCC5)nc4)cc23)c1 gave a growth inhibition of 8.05%. Work on Oc1ccccc1N=Cc1ccc[nH]1 yielded a growth inhibition of 44.8%. O=C(NCCc1ccc(Cl)cc1)c1ccc(CNc2c(N3CCOCC3)c(=O)c2=O)cc1 gave a growth inhibition of 76.2%. With Cc1ccc(C2c3c(C)nn(-c4ccc([N+](=O)[O-])cc4)c3N=C3C(=O)Nc4ccccc4N32)cc1 (stereo unspecified) the growth inhibition was 5.47%. Work on Cc1nn(-c2ccc(N3CCOCC3)nn2)c(C)c1CCC(=O)N1CCN(C)CC1 yielded a growth inhibition of 36.5%. Compound CN(C)S(=O)(=O)c1ccc(C(=O)OCC(=O)Nc2ccc3c(c2)OCO3)cc1 has a growth inhibition of 57.4%. Work on COc1ccc(S(=O)(=O)N2CCN(C(=O)C3CC(=O)N(c4ccccc4F)C3)CC2)cc1OC (stereo unspecified) yielded a growth inhibition of 61.6%. Work on COc1ccc2nc(C)cc(NN=Cc3ccc(F)cc3)c2c1 yielded a growth inhibition of 49.7%. Work on CC(NC(=S)Nc1ccc(OC(F)F)c(Cl)c1)C(C)(C)C (stereo unspecified) yielded a growth inhibition of 50.1%. Nc1c(Cl)cc(C2=NCCn3c2c2ccc([N+](=O)[O-])cc2[n+]3[O-])cc1Cl gave a growth inhibition of 25.1%. Work on CCn1c(O)c(N=NC(=O)c2ccc(CSc3nncn3C)cc2)c2ccccc21 yielded a growth inhibition of 16.1%. Work on CC1=C(C(=O)Nc2ccccc2)C(c2ccc(C)cc2)N=C(Nc2nc3ccccc3o2)N1 (stereo unspecified) yielded a growth inhibition of -20.4%. Cc1ccc(S(=O)(=O)N2CCOCC2)cc1C(=O)OCC(=O)NC1CC1 gave a growth inhibition of 61.2%. For N#Cc1ccc(OCC(=O)N2CCN(S(=O)(=O)c3ccc(Cl)s3)CC2)cc1, the growth inhibition was 69.2%. C=CCC(CC(=O)NC(CO)Cc1ccccc1)C(=O)NC(COC(=O)C(CC=C)Cc1ccc(F)cc1)Cc1c[nH]c2ccccc12 (stereo unspecified) gave a growth inhibition of 13%. O=C(CCSc1nnc(-c2ccccc2)o1)N1CCOCC1 gave a growth inhibition of 12.6%. Work on COc1ccc(CNc2nc3nc(C)c(Cl)c(=O)n3[nH]2)cc1 yielded a growth inhibition of 54.7%. In the case of N#CC(=NNc1ccc([N+](=O)[O-])cc1)C(=N)N1CCCCC1, the growth inhibition is reported as 5.47%. For O=C(CSCc1ccc(Cl)cc1)Nc1ccccc1O, the growth inhibition was 38.9%. N#CC1(Nc2ccccc2)C(=O)Nc2ccccc21 (stereo unspecified) gave a growth inhibition of 20.7%. Work on O=C(COC(=O)Cc1ccc(Cl)cc1)NCc1cccs1 yielded a growth inhibition of 71%. NC1=NC(=O)/C(=C\c2ccc(O)c([N+](=O)[O-])c2)S1 showed a growth inhibition of 31%. Work on O=C(Nc1cccc(O)c1)c1cccc(C(=O)Nc2cccc(O)c2)c1 yielded a growth inhibition of -2.47%. Work on COc1ccc(-c2nnc(SCc3nc4ccccc4s3)n2C(C)C)cc1 yielded a growth inhibition of 5.66%. Compound Cc1cc(C)[n+]2[nH]c(N)c(N=Nc3ccccc3)c2n1 has a growth inhibition of 18.4%. In the case of Cc1cnc(C(=O)OCC(=O)Nc2cccc3ccccc23)cn1, the growth inhibition is reported as 56.9%. CCOc1ccc(N2C(=O)NC(=O)C(=Cc3ccc(N4CCCCC4)o3)C2=O)cc1 gave a growth inhibition of 13.6%. In the case of Nc1ccc(C2(c3ccc(N)cc3)c3ccccc3-c3ccccc32)cc1, the growth inhibition is reported as 7.38%. Cc1ccnc2nc(C(=O)Nc3nc4ccccc4s3)nn12 showed a growth inhibition of 23.3%. Compound CC(=O)c1c(C)n([O-])c2ccc(C)cc2[n+]1=O has a growth inhibition of 13.4%. Compound Cc1ccc(C(=O)OCC(=O)NC2CCCC(C)C2C)cc1S(=O)(=O)N1CCCCC1 (stereo unspecified) has a growth inhibition of 60.7%. Compound NC(=O)C[C@H](NC(=O)c1ccc(Cl)cc1)C(=O)OCc1ccccc1 has a growth inhibition of 64%. COC(=O)CSc1[nH]c2ccc(Br)cc2c1[N+](=O)[O-] showed a growth inhibition of 23.5%. Compound CCN(CC)c1ccc2c(-c3ccc(S(=O)(=O)O)cc3S(=O)(=O)[O-])c3ccc(=[N+](CC)CC)cc-3oc2c1 has a growth inhibition of -32.3%. With O=C(COC(=O)c1ccc([N+](=O)[O-])o1)Nc1ccc(F)cc1 the growth inhibition was 62.1%. CCN(CC)CCCNc1nc2cc(OC)c(OC)cc2c2nc(-c3ccccc3)nn12 gave a growth inhibition of 29.9%. In the case of O=C(O)c1ccc(NN=C/C=C/c2ccc([N+](=O)[O-])o2)cc1, the growth inhibition is reported as 41.1%. For CC1CCCC(C)N1C(=O)COC(=O)c1cccnc1Cl (stereo unspecified), the growth inhibition was 76.7%. In the case of O=C(Nc1ccccc1)Nc1ccno1, the growth inhibition is reported as 12.9%. Work on Oc1[nH]c2ccc(Br)cc2c1N=NC(=S)N1CCOCC1 yielded a growth inhibition of 20%. For CS(=O)(=O)Nc1ccccc1C(=O)OCC(=O)N1CCC(c2ccccc2)=N1, the growth inhibition was 72.4%. In the case of OCC#CCSc1nnc(-c2cccc3ccccc23)o1, the growth inhibition is reported as 28.7%. Cc1ccc(C)c(NC(=O)CN(C)C(=O)c2ccc(S(=O)(=O)N3CCCCCC3)cc2)c1 showed a growth inhibition of 65.9%. Compound O=C(COC(=O)c1ccccc1O)NC1CCCc2ccccc21 (stereo unspecified) has a growth inhibition of 64.9%. COCc1nnc(NS(=O)(=O)c2ccc([N+](=O)[O-])cc2)s1 showed a growth inhibition of 41.3%. CCCCCCC[n+]1ccc(-c2cc[n+](CCCCCCC)cc2)cc1 showed a growth inhibition of 35.2%. O=C1CN(C(=O)COC(=O)c2ccc(Br)o2)c2ccccc2N1 gave a growth inhibition of 56.5%. Work on CC(C)Sc1nc2c(c(=O)n(C)c(=O)n2C)n1Cc1ccc(Cl)cc1 yielded a growth inhibition of 0.504%. Work on NC(=O)CCCn1c(C(=O)c2ccc(Cl)cc2)c2ccc([N+](=O)[O-])cc2[n+]1[O-] yielded a growth inhibition of 23.4%. Compound O=C(NC(=S)NNC(=O)c1cnccn1)c1ccc(Cl)cc1 has a growth inhibition of 16.4%. C=CC[n+]1ccc(/C=C2\C=Cc3cc(C)ccc3N2CC)c2ccccc21 gave a growth inhibition of 22.1%. For CC1CN(C(=O)/C=C/c2ccc3c(c2)OCO3)CC(C)O1 (stereo unspecified), the growth inhibition was -11.8%. Compound O=c1c2c(-c3ccccc3)csc2nc2c3ccccc3c(NCCN3CCOCC3)nn12 has a growth inhibition of 24.3%. With O=[N+]([O-])c1ccc(-n2cnc3ccccc32)c([N+](=O)[O-])c1 the growth inhibition was 25.6%.
